Results published in the RNAGym collection of RNA variant scans (doi:10.1073/pnas.2313332121).
This sample is rich in variants without activity.

B1: TPR 5TU (parent)
chain: GGAUCUUCUCGAUCUAACAAAAAAGACAAAUCUGCCACAAAGCUUGAGAGCAUCUUCGGAUGCAGAGGCGGCAGCCUUCGGUGGCGCGAUAGCGCCAACGUUCUCAACUAUGACACGCAAAACGCGUGCUCCGUUGAAUGGAGUUUAUCAUG

Variants of: B1
Experiment: polymerase ribozyme fitness, log enrichment relative to wild type (log ratio); higher = more active; in vitro selection for triplet polymerase activity
Summary of the method: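 To select mutant libraries of each subunit of a heterodimeric triplet polymerase ribozyme, built by PCR and transcribed, each was annealed with a biotinylated primer, partner subunit and triplets, then incubated frozen at −7 °C. Extended constructs were gel-excised, captured on streptavidin beads and amplified by RT-PCR, in one round carried out in triplicate. Illumina sequencing of input and output libraries kept genotypes with ≥10 input reads and ≥1 read per output. Fitness is the base-2 logarithm of genotype enrichment relative to wild-type enrichment, from inverse-variance-weighted replicate averages.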
With GGAUCUUCUCGAUCUAACAAAAAAGACAAAUCUGCCACAAGGCUUGAUAGCAUCUUUGGAUGCAGAGGCCGCAGCCUACGAUGGCGCGAUAGCGCGGACGUUCUCAACUAUGACACGUAAAACGGGUGCUCCGUUGAAUGGAGUUUAUCAUG the “polymerase ribozyme fitness (log ratio)” value was no more than -4.2.
For GGAUCUUCUCGAUCUAACAAAAAAGACAAAUCUGCCACAAGGCUUGAAAGCAUCUUCGGAUGCAGAGGCGGCAGCCUUCGGUGGCGAGAUAGCGCCAACGUUCUCAACUAUGACACGCAAAACGCGUGCUCCGUUGAAUGGAGUUUACCAUG, the “polymerase ribozyme fitness (log ratio)” value was no more than -4.2.
In the case of GGAUCUUCUCGAUCUAACAAAAAAGACAAAUCUGCCACAAGGCUUGAGAGCAUCUUCGGAUGCAGAGGCGGCAGGCUUCGGUCGCGGGAUAGCGCCAAAGUUCUCAACUAUGACACGCAAAACGCGUGCUCCGUUGAAUGGAGUUUAUCAUG, the “polymerase ribozyme fitness (log ratio)” value is reported as no more than -4.2.
With GGAUCUUCUCGAUCUAACAAAAAAGACAAAUCUGCCACAAGUAUUGAGAGCAUCUUGGGAUGCAGAGGCGGCAGCCUUCGGUGGCGGGAUAGCGCCAACGUUCUCAACUAUGACACGCAAAACGUGUGCUCCGUUGAAUGGAGUUUAUCAUG the “polymerase ribozyme fitness (log ratio)” value was no more than -4.2.
With GGAUCUUCUCGAUCUAACAAAAAAGACAAAUCUGCCACAAGGCUUGAGACCAUCUUCGGAUGCAGAGGCGGCAGCCUUCGGUGGCGCGAUAGCGCCAACGUUCUCAACUAUGACACGCAAAACGUGUGCUCCGUUGAAUGGGGUUUAUCAUG the “polymerase ribozyme fitness (log ratio)” value was -3.92.
In the case of GGAUCUUCUCGAUCUAACAAAAAAGACAAAUCUGCCACAAGGCUUGAGAGCAUCUUCGCAUGCAGAGGCGGCAGCCUUCGGAAGCGCGAUAGCGCCAACCUUCUCAACUAUGACACGCAAAACGCGGGCUCCGUUGAAUGGUGUUUAUCAUU, the “polymerase ribozyme fitness (log ratio)” value is reported as no more than -4.2.
For GGAUCUUCUCGAUCUAACAAAAAAGACAAAUCUGCCACAAGGCUUGAGAGCAUCUUCGGAUGCAGAGACGGCAGACUUCGGUGGCGCGAUGGCGCUAACGUGCUCAACUAUGACACGCAAAACGCGUGCUCCGUUGAAUGAAGUUUAUCAUG, the “polymerase ribozyme fitness (log ratio)” value was no more than -4.2.
With GGAUCUUCUCGAUCUAACAAAAAAGACAAAUCUGCCACAAGGCUUGUGAGCAUCUUCGGAUGCAGAGGCGGCAGCCUUCGGUGGCGCCAUAGGGCCAACGUUCUCAACUAUGACACGCAAAACGCGUGCUCCGUUGAAUGGAGUUUAUCAUG the “polymerase ribozyme fitness (log ratio)” value was no more than -4.2.
In the case of GGAUCUUCUCGAUCUAACAAAAAAGACAAAUCUGCCACAAGGCUUGAGAGCAUCUUCGGGUGCAGAGGCGGCAGCCUUCGGUGGCGCGAUAGCGCCUACGUUCUCAACUAUGACACGCAAAACGCGUGCUCCGUUGAAUGGAGUUUAUCAUG, the “polymerase ribozyme fitness (log ratio)” value is reported as -0.347.
For GGAUCUUCUCGAUCUAACAAAAAAGACAAAUCUGCCACAAGGCUUGAGAGCAUCUUCGGAUGCAGAGGCGGCAGCCUUCGGUGGCGCGAUAGCGCAAACGUUCUCAACUAUGACACGCAAAACGCGUGCUCCGUUGAAUGGAGUUUAUUAUG, the “polymerase ribozyme fitness (log ratio)” value was -0.509.
With GGAUCUUCUCGAUCUAACAAAAAAGACAAAUCUGCCACAAGGCUUGAGCGCAUCUUCGGAUGCAGAGUCGGCAGCUUUCGGUGGCGCGAUAGUGCCUACGUUCUCAACUAUGACACGCAAAACGCGUGCUCCGUUGAAUGGAGUUUAUCAUG the “polymerase ribozyme fitness (log ratio)” value was no more than -4.2.
With GGAUCUUCUCGAUCUAACAAAAAAGACAAAUCUGCCACAAGGCUUGAGAGCAUCUUCGGAUGCAGAGGCGGCAGCCUUAGGUGACGCGUUAGCGCCAACGUUCUCAACUAUGACACGCAAAACGCGUGCUCCGUUGAAUGGAGUUUAUCAUG the “polymerase ribozyme fitness (log ratio)” value was no more than -4.2.
In the case of GGAUCUUCUCGAUCUAACAAAAAAGACAAAUCUGCCACAAGGCUUGAGAGCAUCUUCGGAUGCAGAGGCGGCAGCUUUCGGUGUAGCGAUAGCGCCUACAUUCUCAACUAUGACACGCAAAACGCGUGCUCCGUUGAAUUGAGUUUAUCAUG, the “polymerase ribozyme fitness (log ratio)” value is reported as no more than -4.2.
For GGAUCUUCUCGAUCUAACAAAAAAGACAAAUCUGCCACAAGGCUUGAGAGCAUCUUCGGAUGCAGAGGCGGCAGCCUUCGGUGGCGCGAUAGAGCCAACGUUCUCAACUAUGACACGCAAAACUCGUGCUCCGUUGAAUGGAGUUUAUCAUG, the “polymerase ribozyme fitness (log ratio)” value was -1.5.
With GGAUCUUCUCGAUCUAACAAAAAAGACAAAUCUGCCACAAGGCUUGAGAGCAUCUUCGGAUGCAGAGGGGGCAGCCUUCGGUGGCGCGAGAGCGCCAACGUUCUCAACUAUGACACGCAAAACGCGUGCUCCGUUGAAUGGAGUUUAUCAUG the “polymerase ribozyme fitness (log ratio)” value was no more than -4.2.
In the case of GGAUCUUCUCGAUCUAACAAAAAAGACAAAUCUGCCACAAGGCUUGAGAGCAUGUUCGGAUGCAGAGACGGCAGCCUUCGGUGACGCGAUAGCGCCAACGUUCACAAUUAUGACACGCAAAACGCGUGCUCCGUUGAAUGGAGUUUAUCAUG, the “polymerase ribozyme fitness (log ratio)” value is reported as no more than -4.2.
With GGAUCUUCUCGAUCUAACAAAAAAGACAAAUCUGCCACAAGGCUUGAGAGCAUCUUCGGAUGCAGAGGCGGCAGCCUUCGGUGGAGCGAUAGCGCCAACGGUCUCAACUAUGACACGCAAAACGCGUGCUCCGUUGAAUGGAGUUUAUCAUG the “polymerase ribozyme fitness (log ratio)” value was -1.82.
In the case of GGAUCUUCUCGAUCUAACAAAAAAGACAAAUCUGCCACAAGGCUUGAGCGAAUCUUCGGAUGCAAUGGCGGCAGCCUUCGGUGGCGGGAUAGCGACAACGUCCUCAACUAUGACACGCAAAACGCGUGCUACGUUGAAUGGAGUUUAUCAUG, the “polymerase ribozyme fitness (log ratio)” value is reported as no more than -4.2.
For GGAUCUUCUCGAUCUAACAAAAAAGACAAAUCUGCCACAAGGCUUGAGAGCAUCUUAGAAUGCAGAGUCGGCAGCCUUCGGUGGCGCGAUAGCGCCAACGUUCUCAACUAUGACACGCAAAACGCGUGCUCCGUUGAAUGGAGUUUAUCAUG, the “polymerase ribozyme fitness (log ratio)” value was no more than -4.2.
